# Some of the results follow.
# How the values were obtained:
# Experiment in all cases: glycan array binding signal (z-score within array); higher = stronger binding
# Details in all cases: glycan notation: IUPAC condensed, linker removed; mutation: E41G
# [1] = biological target: Gal(b1-3)GlcNAc(b1-6)GalNAc
# Summary of the method: (§1)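 Glycan array data came from 3228 arrays in the Consortium for Functional Glycomics database, and only arrays with an available protein sequence were kept. Glycan names were put into IUPAC-condensed notation, and columns mapping to the same glycan were averaged. The binding signal is a within-array Z-score, averaged across arrays of one protein sequence run at different concentrations or buffers and across linkers. A negative Z-score can be read as non-binding.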
# [2] = biological target: Gal(b1-3)GlcNAc(b1-6)[Gal(b1-3)]GalNAc
# Summary of the method: as §1
# [3] = biological target: Gal(b1-3)GlcNAc6S
# Summary of the method: as §1
# [4] = biological target: Gal(b1-3)[Fuc(a1-4)]GlcNAc
# Summary of the method: as §1
# [5] = biological target: Gal(b1-3)[Fuc(a1-4)]GlcNAc(b1-2)Man
# Summary of the method: as §1
# [6] = biological target: Gal(b1-3)[Fuc(a1-4)]GlcNAc(b1-2)Man(a1-3)[Gal(b1-3)[Fuc(a1-4)]GlcNAc(b1-2)Man(a1-6)]Man(b1-4)GlcNAc(b1-4)[Fuc(a1-6)]GlcNAc
# Summary of the method: as §1
# [7] = biological target: Gal(b1-3)[Fuc(a1-4)]GlcNAc(b1-3)Gal(b1-3)[Fuc(a1-4)]GlcNAc
# Summary of the method: as §1
# [8] = biological target: Gal(b1-3)[Fuc(a1-4)]GlcNAc(b1-3)Gal(b1-4)[Fuc(a1-3)]GlcNAc
# Summary of the method: as §1
# [9] = biological target: Gal(b1-3)[Fuc(a1-4)]GlcNAc(b1-6)GalNAc
# Summary of the method: as §1
# [10] = biological target: Gal(b1-3)[GlcNAc(b1-6)]GalNAc
# Summary of the method: as §1
# [11] = biological target: Gal(b1-3)[Neu5Ac(a2-6)]GalNAc
# Summary of the method: as §1
# [12] = biological target: Gal(b1-3)[Neu5Ac(a2-6)]GlcNAc(b1-4)Gal(b1-4)Glc
# Summary of the method: as §1
# [13] = biological target: Gal(b1-3)[Neu5Ac(b2-6)]GalNAc
# Summary of the method: as §1
# [14] = biological target: Gal(b1-4)Gal
# Summary of the method: as §1
# [15] = biological target: Gal(b1-4)GalNAc(a1-3)[Fuc(a1-2)]Gal(b1-4)GlcNAc
# Summary of the method: as §1
# [16] = biological target: Gal(b1-4)GalNAc(b1-3)[Fuc(a1-2)]Gal(b1-4)GlcNAc
# Summary of the method: as §1
# [17] = biological target: Gal(b1-4)Glc
# Summary of the method: as §1
# [18] = biological target: Gal(b1-4)Glc6S
# Summary of the method: as §1
# [19] = biological target: Gal(b1-4)GlcNAc
# Summary of the method: as §1
# [20] = biological target: Gal(b1-4)GlcNAc(a1-6)Gal(b1-4)GlcNAc
# Summary of the method: as §1
# [21] = biological target: Gal(b1-4)GlcNAc(b1-2)Man
# Summary of the method: as §1
# [22] = biological target: Gal(b1-4)GlcNAc(b1-2)Man(a1-3)Man(b1-4)GlcNAc(b1-4)GlcNAc
# Summary of the method: as §1
# [23] = biological target: Gal(b1-4)GlcNAc(b1-2)Man(a1-3)[Gal(b1-4)GlcNAc(b1-2)Man(a1-6)]Man(b1-4)GlcNAc(b1-4)GlcNAc
# Summary of the method: as §1
# [24] = biological target: Gal(b1-4)GlcNAc(b1-2)Man(a1-3)[Gal(b1-4)GlcNAc(b1-2)Man(a1-6)]Man(b1-4)GlcNAc(b1-4)[Fuc(a1-6)]GlcNAc
# Summary of the method: as §1
# [25] = biological target: Gal(b1-4)GlcNAc(b1-2)Man(a1-3)[Gal(b1-4)GlcNAc(b1-2)Man(a1-6)][Gal(b1-4)GlcNAc(b1-4)]Man(b1-4)GlcNAc(b1-4)[Fuc(a1-6)]GlcNAc
# Summary of the method: as §1
# [26] = biological target: Gal(b1-4)GlcNAc(b1-2)Man(a1-3)[Gal(b1-4)GlcNAc(b1-2)Man(a1-6)][GlcNAc(b1-4)]Man(b1-4)GlcNAc(b1-4)[Fuc(a1-6)]GlcNAc
# Summary of the method: as §1
# [27] = biological target: Gal(b1-4)GlcNAc(b1-2)Man(a1-3)[GlcNAc(b1-2)Man(a1-6)]Man(b1-4)GlcNAc(b1-4)GlcNAc
# Summary of the method: as §1
# [28] = biological target: Gal(b1-4)GlcNAc(b1-2)Man(a1-3)[GlcNAc(b1-4)][Gal(b1-4)GlcNAc(b1-2)Man(a1-6)]Man(b1-4)GlcNAc(b1-4)GlcNAc
# Summary of the method: as §1
# [29] = biological target: Gal(b1-4)GlcNAc(b1-2)Man(a1-3)[Man(a1-6)]Man(b1-4)GlcNAc(b1-4)GlcNAc
# Summary of the method: as §1
# [30] = biological target: Gal(b1-4)GlcNAc(b1-2)Man(a1-6)Man(b1-4)GlcNAc(b1-4)GlcNAc
# Summary of the method: as §1
# [31] = biological target: Gal(b1-4)GlcNAc(b1-2)Man(a1-6)[GlcNAc(b1-2)Man(a1-3)]Man(b1-4)GlcNAc(b1-4)GlcNAc
# Summary of the method: as §1
# [32] = biological target: Gal(b1-4)GlcNAc(b1-2)Man(a1-6)[Man(a1-3)]Man(b1-4)GlcNAc(b1-4)GlcNAc
# Summary of the method: as §1
# [33] = biological target: Gal(b1-4)GlcNAc(b1-2)[Gal(b1-4)GlcNAc(b1-4)]Man(a1-3)[Gal(b1-4)GlcNAc(b1-2)Man(a1-6)]Man(b1-4)GlcNAc(b1-4)GlcNAc
# Summary of the method: as §1
# [34] = biological target: Gal(b1-4)GlcNAc(b1-2)[Gal(b1-4)GlcNAc(b1-4)]Man(a1-3)[Gal(b1-4)GlcNAc(b1-2)[Gal(b1-4)GlcNAc(b1-6)]Man(a1-6)]Man(b1-4)GlcNAc(b1-4)GlcNAc
# Summary of the method: as §1
# [35] = biological target: Gal(b1-4)GlcNAc(b1-2)[Gal(b1-4)GlcNAc(b1-4)]Man(a1-3)[GlcNAc(b1-4)][Gal(b1-4)GlcNAc(b1-2)Man(a1-6)]Man(b1-4)GlcNAc(b1-4)GlcNAc
# Summary of the method: as §1
# [36] = biological target: Gal(b1-4)GlcNAc(b1-2)[Gal(b1-4)GlcNAc(b1-4)]Man(a1-3)[GlcNAc(b1-4)][Gal(b1-4)GlcNAc(b1-2)[Gal(b1-4)GlcNAc(b1-6)]Man(a1-6)]Man(b1-4)GlcNAc(b1-4)GlcNAc
# Summary of the method: as §1
# [37] = biological target: Gal(b1-4)GlcNAc(b1-2)[Gal(b1-4)GlcNAc(b1-6)]Man(a1-6)[Gal(b1-4)GlcNAc(b1-2)Man(a1-3)]Man(b1-4)GlcNAc(b1-4)GlcNAc
# Summary of the method: as §1
# [38] = biological target: Gal(b1-4)GlcNAc(b1-2)[Gal(b1-4)GlcNAc(b1-6)]Man(a1-6)[Gal(b1-4)GlcNAc(b1-2)Man(a1-3)]Man(b1-4)GlcNAc(b1-4)[Fuc(a1-6)]GlcNAc
# Summary of the method: as §1
# [39] = biological target: Gal(b1-4)GlcNAc(b1-2)[Gal(b1-4)GlcNAc(b1-6)]Man(a1-6)[GlcNAc(b1-4)][Gal(b1-4)GlcNAc(b1-2)Man(a1-3)]Man(b1-4)GlcNAc(b1-4)GlcNAc
# Summary of the method: as §1
# [40] = biological target: Gal(b1-4)GlcNAc(b1-2)[Gal(b1-4)GlcNAc(b1-6)]Man(a1-6)[GlcNAc(b1-4)][Gal(b1-4)GlcNAc(b1-2)[Gal(b1-4)GlcNAc(b1-4)]Man(a1-3)]Man(b1-4)GlcNAc(b1-4)[Fuc(a1-6)]GlcNAc
# Summary of the method: as §1
# [41] = biological target: Gal(b1-4)GlcNAc(b1-3)Gal(b1-3)GalNAc
# Summary of the method: as §1
# [42] = biological target: Gal(b1-4)GlcNAc(b1-3)Gal(b1-3)GlcNAc
# Summary of the method: as §1
# [43] = biological target: Gal(b1-4)GlcNAc(b1-3)Gal(b1-4)Glc
# Summary of the method: as §1
# [44] = biological target: Gal(b1-4)GlcNAc(b1-3)Gal(b1-4)GlcNAc
# Summary of the method: as §1
# [45] = biological target: Gal(b1-4)GlcNAc(b1-3)Gal(b1-4)GlcNAc(b1-2)Man(a1-3)[Gal(b1-4)GlcNAc(b1-3)Gal(b1-4)GlcNAc(b1-2)Man(a1-6)]Man(b1-4)GlcNAc(b1-4)GlcNAc
# Summary of the method: as §1
binder,measurement,setting,value
CVN-E41G (protein) MHHHHHHENLYFQSGNFSQACYNSAIQGSVLTSTCIRTNGGYNTSSIDLNSVIGNVDGSLKWQGSNFIETCRNTQLAGSSELAAECKTRAQQFVSTKINLDDHIAAIDGTLKYE,glycan array binding signal (z-score),[1],-0.14
same,glycan array binding signal (z-score),[2],-0.103
same,glycan array binding signal (z-score),[3],-0.17
same,glycan array binding signal (z-score),[4],-0.151
same,glycan array binding signal (z-score),[5],-0.063
same,glycan array binding signal (z-score),[6],0.524
same,glycan array binding signal (z-score),[7],-0.055
same,glycan array binding signal (z-score),[8],-0.151
same,glycan array binding signal (z-score),[9],-0.062
same,glycan array binding signal (z-score),[10],-0.169
same,glycan array binding signal (z-score),[11],-0.077
same,glycan array binding signal (z-score),[12],-0.179
same,glycan array binding signal (z-score),[13],-0.158
same,glycan array binding signal (z-score),[14],-0.137
same,glycan array binding signal (z-score),[15],-0.183
same,glycan array binding signal (z-score),[16],-0.182
same,glycan array binding signal (z-score),[17],-0.159
same,glycan array binding signal (z-score),[18],-0.155
same,glycan array binding signal (z-score),[19],-0.167
same,glycan array binding signal (z-score),[20],-0.181
same,glycan array binding signal (z-score),[21],-0.16
same,glycan array binding signal (z-score),[22],-0.157
same,glycan array binding signal (z-score),[23],-0.166
same,glycan array binding signal (z-score),[24],-0.15
same,glycan array binding signal (z-score),[25],-0.169
same,glycan array binding signal (z-score),[26],-0.165
same,glycan array binding signal (z-score),[27],-0.156
same,glycan array binding signal (z-score),[28],-0.16
same,glycan array binding signal (z-score),[29],-0.04
same,glycan array binding signal (z-score),[30],-0.177
same,glycan array binding signal (z-score),[31],-0.149
same,glycan array binding signal (z-score),[32],-0.149
same,glycan array binding signal (z-score),[33],-0.165
same,glycan array binding signal (z-score),[34],0.24
same,glycan array binding signal (z-score),[35],-0.154
same,glycan array binding signal (z-score),[36],-0.156
same,glycan array binding signal (z-score),[37],-0.152
same,glycan array binding signal (z-score),[38],-0.163
same,glycan array binding signal (z-score),[39],-0.142
same,glycan array binding signal (z-score),[40],-0.143
same,glycan array binding signal (z-score),[41],-0.179
same,glycan array binding signal (z-score),[42],-0.157
same,glycan array binding signal (z-score),[43],-0.143
same,glycan array binding signal (z-score),[44],-0.143
same,glycan array binding signal (z-score),[45],-0.028
